# Experimental data as given in the supplement of paper PMC8728848.
# The other results are listed elsewhere or left out.
# B1: Calsepa (Calystegia sepium), P93114 (protein)
# chain: MAVPMDTISGPWGNNGGNFWSFRPVNKINQIVISYGGGGNNPIALTFSSTKADGSKDTITVGGGGPDSITGTEMVNIGTDEYLTGISGTFGIYLDNNVLRSITFTTNLKAHGPYGQKVGTPFSSANVVGNEIVGFLGRSGYYVDAIGTYNRHK
# What was measured:
# Assay in all cases: glycan array binding signal (z-score within array); higher = stronger binding
# Details in all cases: glycan notation: IUPAC condensed, linker removed
# [1] = target: Neu5Ac(a2-6)Gal(b1-4)GlcNAc(b1-2)Man(a1-3)Man(b1-4)GlcNAc(b1-4)GlcNAc
# Procedure, shortened: (§1)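 The Consortium for Functional Glycomics database supplied 3228 glycan arrays, of which those lacking an available protein sequence were dropped. The binding signal, a within-array Z-score, was averaged across arrays of the same protein sequence and across linkers. Negative scores can be read as non-binding.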
# [2] = target: Neu5Ac(a2-6)Gal(b1-4)GlcNAc(b1-2)Man(a1-3)[Gal(b1-4)GlcNAc(b1-2)Man(a1-6)]Man(b1-4)GlcNAc(b1-4)GlcNAc
# Procedure, shortened: as §1
# [3] = target: Neu5Ac(a2-6)Gal(b1-4)GlcNAc(b1-2)Man(a1-3)[GlcNAc(b1-2)Man(a1-6)]Man(b1-4)GlcNAc(b1-4)GlcNAc
# Procedure, shortened: as §1
# [4] = target: Neu5Ac(a2-6)Gal(b1-4)GlcNAc(b1-2)Man(a1-3)[GlcNAc(b1-2)Man(b1-4)GlcNAc(b1-2)Man(a1-6)]Man(b1-4)GlcNAc(b1-4)GlcNAc
# Procedure, shortened: as §1
# [5] = target: Neu5Ac(a2-6)Gal(b1-4)GlcNAc(b1-2)Man(a1-3)[Man(a1-6)]Man(b1-4)GlcNAc(b1-4)GlcNAc
# Procedure, shortened: as §1
# [6] = target: Neu5Ac(a2-6)Gal(b1-4)GlcNAc(b1-2)Man(a1-3)[Neu5Ac(a2-6)Gal(b1-4)GlcNAc(b1-2)Man(a1-6)]Man(b1-4)GlcNAc(b1-4)GlcNAc
# Procedure, shortened: as §1
# [7] = target: Neu5Ac(a2-6)Gal(b1-4)GlcNAc(b1-2)Man(a1-3)[Neu5Ac(a2-6)Gal(b1-4)GlcNAc(b1-2)Man(a1-6)]Man(b1-4)GlcNAc(b1-4)[Fuc(a1-6)]GlcNAc
# Procedure, shortened: as §1
# [8] = target: Neu5Ac(a2-6)Gal(b1-4)GlcNAc(b1-2)Man(a1-6)Man(b1-4)GlcNAc(b1-4)GlcNAc
# Procedure, shortened: as §1
# [9] = target: Neu5Ac(a2-6)Gal(b1-4)GlcNAc(b1-2)Man(a1-6)[Gal(b1-4)GlcNAc(b1-2)Man(a1-3)]Man(b1-4)GlcNAc(b1-4)GlcNAc
# Procedure, shortened: as §1
# [10] = target: Neu5Ac(a2-6)Gal(b1-4)GlcNAc(b1-2)Man(a1-6)[GlcNAc(b1-2)Man(a1-3)]Man(b1-4)GlcNAc(b1-4)GlcNAc
# Procedure, shortened: as §1
# [11] = target: Neu5Ac(a2-6)Gal(b1-4)GlcNAc(b1-2)Man(a1-6)[Man(a1-3)]Man(b1-4)GlcNAc(b1-4)GlcNAc
# Procedure, shortened: as §1
# [12] = target: Neu5Ac(a2-6)Gal(b1-4)GlcNAc(b1-3)Gal(b1-3)GlcNAc
# Procedure, shortened: as §1
# [13] = target: Neu5Ac(a2-6)Gal(b1-4)GlcNAc(b1-3)Gal(b1-4)GlcNAc
# Procedure, shortened: as §1
# [14] = target: Neu5Ac(a2-6)Gal(b1-4)GlcNAc(b1-3)Gal(b1-4)GlcNAc(b1-3)Gal(b1-4)GlcNAc
# Procedure, shortened: as §1
# [15] = target: Neu5Ac(a2-6)Gal(b1-4)GlcNAc(b1-3)Gal(b1-4)[Fuc(a1-3)]GlcNAc(b1-3)Gal(b1-4)[Fuc(a1-3)]GlcNAc
# Procedure, shortened: as §1
# [16] = target: Neu5Ac(a2-6)Gal(b1-4)GlcNAc(b1-3)GalNAc
# Procedure, shortened: as §1
# [17] = target: Neu5Ac(a2-6)Gal(b1-4)GlcNAc(b1-3)[Neu5Ac(a2-6)Gal(b1-4)GlcNAc(b1-6)]GalNAc
# Procedure, shortened: as §1
# [18] = target: Neu5Ac(a2-6)Gal(b1-4)GlcNAc(b1-6)GalNAc
# Procedure, shortened: as §1
# [19] = target: Neu5Ac(a2-6)Gal(b1-4)GlcNAc(b1-6)[Gal(b1-3)GlcNAc(b1-3)]Gal(b1-4)Glc
# Procedure, shortened: as §1
# [20] = target: Neu5Ac(a2-6)Gal(b1-4)GlcNAc6S
# Procedure, shortened: as §1
# Neu5Ac(a2-6)GalNAc = target: Neu5Ac(a2-6)GalNAc
# Procedure, shortened: as §1
# [21] = target: Neu5Ac(a2-6)GalNAc(b1-4)GlcNAc
# Procedure, shortened: as §1
# [22] = target: Neu5Ac(a2-6)GalNAc(b1-4)GlcNAc6S
# Procedure, shortened: as §1
# [23] = target: Neu5Ac(a2-6)GlcNAc(b1-4)GlcNAc
# Procedure, shortened: as §1
# [24] = target: Neu5Ac(a2-6)GlcNAc(b1-4)GlcNAc(b1-4)GlcNAc
# Procedure, shortened: as §1
# Neu5Ac(a2-8)Neu5Ac = target: Neu5Ac(a2-8)Neu5Ac
# Procedure, shortened: as §1
# [25] = target: Neu5Ac(a2-8)Neu5Ac(a2-3)Gal(b1-3)GalNAc(b1-4)[Neu5Ac(a2-8)Neu5Ac(a2-3)]Gal(b1-4)Glc
# Procedure, shortened: as §1
# [26] = target: Neu5Ac(a2-8)Neu5Ac(a2-3)Gal(b1-4)Glc
# Procedure, shortened: as §1
# [27] = target: Neu5Ac(a2-8)Neu5Ac(a2-3)[Gal(b1-3)GalNAc(b1-4)]Gal(b1-4)Glc
# Procedure, shortened: as §1
# [28] = target: Neu5Ac(a2-8)Neu5Ac(a2-3)[GalNAc(b1-4)]Gal(b1-4)Glc
# Procedure, shortened: as §1
# [29] = target: Neu5Ac(a2-8)Neu5Ac(a2-8)Neu5Ac
# Procedure, shortened: as §1
# [30] = target: Neu5Ac(a2-8)Neu5Ac(a2-8)Neu5Ac(a2-3)Gal(b1-4)Glc
# Procedure, shortened: as §1
# [31] = target: Neu5Ac(a2-8)Neu5Ac(a2-8)Neu5Ac(a2-3)[GalNAc(b1-4)]Gal(b1-4)Glc
# Procedure, shortened: as §1
# [32] = target: Neu5Ac(a2-8)Neu5Ac(a2-8)Neu5Ac(a2-8)Neu5Ac(a2-3)[GalNAc(b1-4)]Gal(b1-4)Glc
# Procedure, shortened: as §1
# [33] = target: Neu5Ac(b2-6)Gal(b1-4)GlcNAc
# Procedure, shortened: as §1
# Neu5Ac(b2-6)GalNAc = target: Neu5Ac(b2-6)GalNAc
# Procedure, shortened: as §1
# [34] = target: Neu5Ac9Ac(a2-3)Gal(b1-3)GlcNAc
# Procedure, shortened: as §1
# [35] = target: Neu5Ac9Ac(a2-3)Gal(b1-4)GlcNAc
# Procedure, shortened: as §1
# [36] = target: Neu5Ac9Ac(a2-6)Gal(b1-4)GlcNAc
# Procedure, shortened: as §1
# [37] = target: Neu5Gc(a2-3)Gal(b1-3)GlcNAc
# Procedure, shortened: as §1
# [38] = target: Neu5Gc(a2-3)Gal(b1-3)[Fuc(a1-4)]GlcNAc
# Procedure, shortened: as §1
# Neu5Gc(a2-3)Gal(b1-4)Glc = target: Neu5Gc(a2-3)Gal(b1-4)Glc
# Procedure, shortened: as §1
# [39] = target: Neu5Gc(a2-3)Gal(b1-4)GlcNAc
# Procedure, shortened: as §1
# [40] = target: Neu5Gc(a2-3)Gal(b1-4)[Fuc(a1-3)]GlcNAc
# Procedure, shortened: as §1
# [41] = target: Neu5Gc(a2-6)Gal(b1-4)GlcNAc
# Procedure, shortened: as §1
# Neu5Gc(a2-6)GalNAc = target: Neu5Gc(a2-6)GalNAc
# Procedure, shortened: as §1
# [42] = target: Neu5Gc(b2-6)Gal(b1-4)GlcNAc
# Procedure, shortened: as §1
binder,measurement,setting,value
B1,glycan array binding signal (z-score),[1],6.79
same,glycan array binding signal (z-score),[2],3.54
same,glycan array binding signal (z-score),[3],3.81
same,glycan array binding signal (z-score),[4],3.49
same,glycan array binding signal (z-score),[5],3.86
same,glycan array binding signal (z-score),[6],4.29
same,glycan array binding signal (z-score),[7],0.514
same,glycan array binding signal (z-score),[8],-0.246
same,glycan array binding signal (z-score),[9],4.01
same,glycan array binding signal (z-score),[10],0.796
same,glycan array binding signal (z-score),[11],2
same,glycan array binding signal (z-score),[12],-0.248
same,glycan array binding signal (z-score),[13],-0.248
same,glycan array binding signal (z-score),[14],-0.248
same,glycan array binding signal (z-score),[15],-0.238
same,glycan array binding signal (z-score),[16],-0.234
same,glycan array binding signal (z-score),[17],-0.274
same,glycan array binding signal (z-score),[18],-0.268
same,glycan array binding signal (z-score),[19],-0.275
same,glycan array binding signal (z-score),[20],-0.244
same,glycan array binding signal (z-score),Neu5Ac(a2-6)GalNAc,-0.253
same,glycan array binding signal (z-score),[21],-0.251
same,glycan array binding signal (z-score),[22],-0.272
same,glycan array binding signal (z-score),[23],-0.248
same,glycan array binding signal (z-score),[24],-0.245
same,glycan array binding signal (z-score),Neu5Ac(a2-8)Neu5Ac,-0.248
same,glycan array binding signal (z-score),[25],-0.273
same,glycan array binding signal (z-score),[26],-0.245
same,glycan array binding signal (z-score),[27],-0.271
same,glycan array binding signal (z-score),[28],-0.245
same,glycan array binding signal (z-score),[29],-0.245
same,glycan array binding signal (z-score),[30],-0.241
same,glycan array binding signal (z-score),[31],-0.245
same,glycan array binding signal (z-score),[32],-0.244
same,glycan array binding signal (z-score),[33],-0.243
same,glycan array binding signal (z-score),Neu5Ac(b2-6)GalNAc,-0.243
same,glycan array binding signal (z-score),[34],-0.251
same,glycan array binding signal (z-score),[35],-0.251
same,glycan array binding signal (z-score),[36],-0.245
same,glycan array binding signal (z-score),[37],-0.245
same,glycan array binding signal (z-score),[38],-0.251
same,glycan array binding signal (z-score),Neu5Gc(a2-3)Gal(b1-4)Glc,-0.241
same,glycan array binding signal (z-score),[39],-0.247
same,glycan array binding signal (z-score),[40],-0.236
same,glycan array binding signal (z-score),[41],-0.247
same,glycan array binding signal (z-score),Neu5Gc(a2-6)GalNAc,-0.251
same,glycan array binding signal (z-score),[42],-0.244
